Data on seven sequences can be found in PMC4081100.

Only a part is listed here, and it is no random draw. For some of these results: At the low end of the ranking the order means little. Some of the results follow. For some of these results: The exact form of the protein is not confirmed.

Common to all, as to assay: universal protein binding microarray (PBM)
Common to all, as to conditions: transcription factors of Arabidopsis thaliana; high values mean tight binding; most listed sequences are background and not binding sites; double strand, one strand shown

One experiment concerns the target GST-NTL6(1-168) (UniProt Q9SCK6).
Another experiment addresses T1, GST-ATAF1 NAC domain (UniProt Q39013).
T1 sequence: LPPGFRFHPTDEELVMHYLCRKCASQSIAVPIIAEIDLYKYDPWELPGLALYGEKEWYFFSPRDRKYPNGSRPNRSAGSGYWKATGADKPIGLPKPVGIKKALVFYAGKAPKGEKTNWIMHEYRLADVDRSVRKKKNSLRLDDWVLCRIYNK

The target of a further experiment is T2, GST-NAP(1-166) (UniProt O49255).
T2 sequence: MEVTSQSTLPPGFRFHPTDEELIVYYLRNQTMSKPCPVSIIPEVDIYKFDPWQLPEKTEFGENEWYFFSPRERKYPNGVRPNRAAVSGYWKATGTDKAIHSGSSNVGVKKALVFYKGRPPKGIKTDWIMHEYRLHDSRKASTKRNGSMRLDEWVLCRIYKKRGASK

A further experiment deals with T3, GST-NTL8 NAC domain (UniProt Q9XIN7).
T3 sequence: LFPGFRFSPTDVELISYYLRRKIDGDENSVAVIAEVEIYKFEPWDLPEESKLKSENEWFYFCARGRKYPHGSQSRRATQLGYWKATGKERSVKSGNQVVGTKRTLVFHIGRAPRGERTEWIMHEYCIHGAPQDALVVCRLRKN

Another experiment deals with T4, GST-VND3 NAC domain (UniProt Q9FH59).
T4 sequence: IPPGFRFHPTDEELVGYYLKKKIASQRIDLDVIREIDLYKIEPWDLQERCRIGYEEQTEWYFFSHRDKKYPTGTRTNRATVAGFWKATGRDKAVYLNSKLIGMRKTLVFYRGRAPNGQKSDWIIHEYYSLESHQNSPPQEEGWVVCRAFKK

A further experiment concerns the target T5, GST-VND7 NAC domain (UniProt Q9C8W9).
T5 sequence: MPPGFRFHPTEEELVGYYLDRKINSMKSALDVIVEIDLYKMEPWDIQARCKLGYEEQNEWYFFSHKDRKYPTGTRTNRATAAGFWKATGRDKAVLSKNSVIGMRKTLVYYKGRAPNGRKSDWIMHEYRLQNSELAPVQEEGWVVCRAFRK

In experiment [1] the target is T6, GST-VOZ2 (Arabidopsis thaliana) (UniProt Q9SLB9).
T6 sequence: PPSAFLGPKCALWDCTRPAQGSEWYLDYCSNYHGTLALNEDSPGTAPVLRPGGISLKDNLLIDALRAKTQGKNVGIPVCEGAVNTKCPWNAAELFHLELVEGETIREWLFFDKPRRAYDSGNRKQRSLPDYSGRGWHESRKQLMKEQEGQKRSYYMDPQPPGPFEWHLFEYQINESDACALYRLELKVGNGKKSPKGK

A further experiment concerns the target GST-WRKY1(266-371) (UniProt Q9SI37).
The target of the next experiment is T7, GST-ANAC092(1-176) (UniProt Q9FKA0).
T7 sequence: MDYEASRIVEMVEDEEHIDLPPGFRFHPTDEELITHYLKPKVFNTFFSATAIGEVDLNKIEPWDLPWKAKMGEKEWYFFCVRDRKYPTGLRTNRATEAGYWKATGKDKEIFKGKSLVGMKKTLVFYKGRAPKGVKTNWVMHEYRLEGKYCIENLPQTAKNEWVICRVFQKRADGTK

The target in the next experiment is T8, GST-ANAC019 NAC domain (UniProt Q9C932).
T8 sequence: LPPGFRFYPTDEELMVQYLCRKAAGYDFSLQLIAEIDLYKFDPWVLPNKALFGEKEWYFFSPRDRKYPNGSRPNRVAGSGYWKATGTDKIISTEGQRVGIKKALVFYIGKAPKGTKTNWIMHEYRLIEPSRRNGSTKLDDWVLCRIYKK

A further experiment concerns the target T9, GST-ANAC055(1-171) (UniProt Q9LDY8).
T9 sequence: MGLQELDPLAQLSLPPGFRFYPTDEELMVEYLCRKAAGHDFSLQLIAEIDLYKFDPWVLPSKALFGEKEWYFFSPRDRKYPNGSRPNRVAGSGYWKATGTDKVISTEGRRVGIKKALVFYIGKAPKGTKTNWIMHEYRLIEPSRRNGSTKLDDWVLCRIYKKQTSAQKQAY

The target of experiment [2] is T10, GST-ANAC092(1-285) full length (UniProt Q9FKA0).
T10 sequence: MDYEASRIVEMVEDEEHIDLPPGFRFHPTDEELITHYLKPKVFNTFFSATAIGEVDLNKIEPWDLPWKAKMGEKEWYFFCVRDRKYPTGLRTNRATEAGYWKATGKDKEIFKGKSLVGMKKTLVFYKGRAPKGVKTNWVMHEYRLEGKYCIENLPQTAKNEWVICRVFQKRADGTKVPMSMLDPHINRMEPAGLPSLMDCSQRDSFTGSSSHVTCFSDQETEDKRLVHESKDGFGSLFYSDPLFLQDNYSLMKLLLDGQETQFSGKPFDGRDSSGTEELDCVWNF

For the next experiment, the target named is T11, GST-NST2(1-184) (UniProt Q9M274).
T11 sequence: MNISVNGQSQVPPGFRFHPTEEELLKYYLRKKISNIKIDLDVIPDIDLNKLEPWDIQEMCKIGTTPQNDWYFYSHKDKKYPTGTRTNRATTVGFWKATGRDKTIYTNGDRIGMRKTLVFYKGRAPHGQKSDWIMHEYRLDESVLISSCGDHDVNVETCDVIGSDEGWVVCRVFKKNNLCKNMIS

UniProt Q9SI37, sequence (Q9SI37 266-371): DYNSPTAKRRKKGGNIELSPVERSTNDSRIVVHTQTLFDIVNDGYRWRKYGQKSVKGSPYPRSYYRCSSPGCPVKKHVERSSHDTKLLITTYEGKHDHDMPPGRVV

CACTCAAC: the binding signal is 0.0871 E-score with GST-NTL6(1-168); 0.0909 E-score with GST-ATAF1 NAC domain; 0.00159 E-score with GST-NAP(1-166); -0.021 E-score in the experiment with GST-NTL8 NAC domain; 0.089 E-score with GST-VND3 NAC domain; 0.00897 E-score with GST-VND7 NAC domain. The binding signal is 0.102 E-score in experiment [1] and -0.058 E-score with GST-WRKY1(266-371).

For CCAAGTCA, the binding signal with GST-ANAC092(1-176) is -0.0709 E-score; with GST-NTL6(1-168) it was -0.00442 E-score; in the experiment with GST-ANAC019 NAC domain, 0.0173 E-score; with GST-ANAC055(1-171), -0.0685 E-score; with GST-ATAF1 NAC domain, -0.0819 E-score; in experiment [2] it was 0.0028 E-score. Further, the binding signal in the experiment with GST-NAP(1-166) is 0.015 E-score; with GST-NST2(1-184), -0.00062 E-score; with GST-NTL8 NAC domain, 0.0169 E-score; with GST-VND3 NAC domain it was -0.0615 E-score; in the experiment with GST-VND7 NAC domain, -0.0034 E-score; in [1], -0.0178 E-score.

For GGGGTCAA, the binding signal was 0.0162 E-score with GST-ANAC092(1-176); 0.0383 E-score with GST-NTL6(1-168); -0.137 E-score in the experiment with GST-ANAC055(1-171); -0.123 E-score with GST-ATAF1 NAC domain; -0.108 E-score with GST-NAP(1-166); -0.0308 E-score with GST-NST2(1-184). The binding signal was -0.103 E-score in the experiment with GST-VND3 NAC domain, 0.012 E-score with GST-VND7 NAC domain and 0.083 E-score in experiment [1].

On to TAGGGAAA, for which the binding signal with GST-ANAC055(1-171) is 0.0468 E-score; with GST-NAP(1-166) it was -0.0299 E-score; in the experiment with GST-NST2(1-184), 0.00907 E-score; with GST-VND3 NAC domain, 0.0218 E-score; in the experiment with GST-VND7 NAC domain it was 0.0188 E-score; in experiment [1], 0.0602 E-score. This sequence gave a binding signal with GST-WRKY1(266-371) of -0.0394 E-score.

With TATACGCA, the binding signal in the experiment with GST-NTL6(1-168) was -0.0516 E-score; with GST-ATAF1 NAC domain it was 0.231 E-score; in experiment [2], 0.4 E-score; with GST-NTL8 NAC domain, -0.0133 E-score; with GST-VND3 NAC domain, 0.29 E-score; in the experiment with GST-VND7 NAC domain, 0.102 E-score. In addition, the binding signal in [1] is 0.106 E-score; with GST-WRKY1(266-371), -0.0718 E-score.

GTCAGTCA: the binding signal with GST-ANAC092(1-176) was -0.032 E-score; in the experiment with GST-NTL6(1-168), -0.0534 E-score; in the experiment with GST-ANAC019 NAC domain, -0.0106 E-score; with GST-ANAC055(1-171), -0.104 E-score; with GST-ATAF1 NAC domain, -0.0709 E-score; with GST-NAP(1-166), 0.0353 E-score. Besides, the binding signal is -0.00585 E-score with GST-NST2(1-184); -0.00441 E-score with GST-NTL8 NAC domain; -0.0527 E-score with GST-VND3 NAC domain; 0.0101 E-score in the experiment with GST-VND7 NAC domain; -0.138 E-score in experiment [1].

With CGTTGACA, the binding signal in the experiment with GST-ANAC092(1-176) is -0.0568 E-score; in the experiment with GST-NTL6(1-168) it was -0.0334 E-score; with GST-ANAC019 NAC domain, -0.0609 E-score; with GST-ANAC055(1-171) it was -0.114 E-score; in the experiment with GST-ATAF1 NAC domain it was 0.0029 E-score; in [2], -0.0367 E-score. The binding signal with GST-NAP(1-166) is 0.0164 E-score; with GST-NST2(1-184), -0.0514 E-score; in the experiment with GST-NTL8 NAC domain it was -0.0447 E-score; with GST-VND3 NAC domain, -0.0171 E-score; with GST-VND7 NAC domain, -0.0931 E-score; in [1] it was -0.0256 E-score.
